Laboratory results published in article PMC4336329 (PLoS ONE, 2015).
The whole screen tested about 310,000 compounds, of which about 14,000 (4.5%) showed an effect of 50% or more. The effect is printed as a negative number. Some of the results follow.

Biological target: human ether-à-go-go-related gene (hERG) potassium channel (human, UniProt Q12809)
Test: primary screen, population patch clamp on CHO cells stably expressing hERG
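Note: peak tail current of the secondary pulse compared with the same well before compound.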

Chain of human ether-à-go-go-related gene (hERG) potassium channel (Q12809 whole entry, looked up): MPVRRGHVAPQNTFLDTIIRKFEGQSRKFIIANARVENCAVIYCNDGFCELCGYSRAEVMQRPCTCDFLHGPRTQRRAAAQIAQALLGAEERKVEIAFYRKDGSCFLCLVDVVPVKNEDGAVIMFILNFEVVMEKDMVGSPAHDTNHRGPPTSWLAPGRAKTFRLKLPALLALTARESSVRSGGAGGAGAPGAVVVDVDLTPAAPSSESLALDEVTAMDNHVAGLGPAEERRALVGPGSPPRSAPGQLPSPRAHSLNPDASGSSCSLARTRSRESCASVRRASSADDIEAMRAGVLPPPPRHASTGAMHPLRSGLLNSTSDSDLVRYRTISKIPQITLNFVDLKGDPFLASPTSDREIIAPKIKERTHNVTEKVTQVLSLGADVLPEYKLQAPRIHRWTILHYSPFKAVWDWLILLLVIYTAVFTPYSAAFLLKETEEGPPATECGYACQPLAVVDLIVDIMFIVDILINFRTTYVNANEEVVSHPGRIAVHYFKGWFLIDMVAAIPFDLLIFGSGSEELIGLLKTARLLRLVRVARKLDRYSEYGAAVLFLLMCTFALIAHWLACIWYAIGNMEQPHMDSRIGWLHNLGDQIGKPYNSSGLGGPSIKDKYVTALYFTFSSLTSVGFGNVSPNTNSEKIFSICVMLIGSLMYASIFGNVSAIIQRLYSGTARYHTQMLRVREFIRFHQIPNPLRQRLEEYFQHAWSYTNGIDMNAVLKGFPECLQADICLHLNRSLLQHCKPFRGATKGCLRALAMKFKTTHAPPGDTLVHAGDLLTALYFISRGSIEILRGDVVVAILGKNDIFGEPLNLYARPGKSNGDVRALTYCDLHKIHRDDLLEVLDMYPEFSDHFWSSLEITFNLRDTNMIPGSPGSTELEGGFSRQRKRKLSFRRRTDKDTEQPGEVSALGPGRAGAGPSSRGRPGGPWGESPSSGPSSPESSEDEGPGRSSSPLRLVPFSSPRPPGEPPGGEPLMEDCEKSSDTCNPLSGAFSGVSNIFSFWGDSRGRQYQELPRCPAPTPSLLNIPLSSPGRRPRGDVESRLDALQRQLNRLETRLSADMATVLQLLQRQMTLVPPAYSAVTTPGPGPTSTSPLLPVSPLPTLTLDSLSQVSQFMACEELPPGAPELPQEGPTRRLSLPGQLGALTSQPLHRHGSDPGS

In order of rising “hERG current change (%, negative = inhibition) at 10uM” value:
1. COc1ccc(CC2(CO)CCN(C(C)Cc3ccc(Cl)cc3)CC2)cc1 (stereo not shown)  -80.4%
2. CCCCCCCNC1=CC(=O)CC(c2ccco2)C1 (stereo not shown)  -76.9%
3. CCn1cc(CN2CCC(C(=O)Nc3ccc(Oc4ccccc4F)cc3)CC2)c(C)n1  -72.9%
4. COc1ccc(C(=O)C2CCCN(Cc3c(O)cccc3OC)C2)cc1OC (stereo not shown)  -63.1%
5. CCN(Cc1ccccc1)Cc1c(C)[nH]c2c(C)c(C)ccc2c1=O  -40.6%
6. CCOC(=O)N1CCN(C(=O)c2ccc3c(c2)N(Cc2ccccc2)CCS3)CC1  -37.3%
7. O=C(NCCC1=CCCCC1)C1CCN(C(=O)c2ccc(Br)cc2)CC1  -30.9%
8. CCC(=O)N1N=C2C3CCN(CC3)C2C1c1ccccc1 (stereo not shown)  -30.3%
9. COc1cccc(NC(=O)N(CCCN2CCOCC2)C(C)c2cc3cccc(OC)c3o2)c1 (stereo not shown)  -29.4%
10. COc1ccccc1C(=O)NCCC(=O)NC1CCCC(C)C1C (stereo not shown)  -27.3%
11. CCOC(=O)c1c(-c2ccc(C)o2)csc1NC(=O)COC(=O)c1ccc(NC(N)=O)cc1  -20.2%
12. COc1ccc(SCCCn2c(=O)c3c(ncn3C)n(C)c2=O)cc1  -18.6%
13. C=CCc1ccc(OCCCCCN2CCOCC2)c(OC)c1.O=C(O)C(=O)O  -18.1%
14. CCOC(=O)Cn1c(CN2CCc3ccccc3C2)nc2c1c(=O)n(C)c(=O)n2C  -17%
15. c1csc(-c2nn3cnnc3c3ccccc23)c1  -15.9%
16. COCCNC(=O)CN1C(=O)CN=C(c2ccccc2)c2ccccc21  -15.6%
17. COc1ccc(S(=O)(=O)N2Cc3ccccc3CC2C(=O)O)cc1 (stereo not shown)  -13.1%
18. O=C(NCCN1CCOCC1)c1cc(-c2cccs2)on1  -13%
19. Cc1nn(C)c(C(=O)Nc2ccn(Cc3ccccc3F)n2)c1[N+](=O)[O-]  -12.6%
20. CCCn1c(SCC(=O)c2cc(C)n(-c3ccc4c(c3)OCO4)c2C)n[nH]c1=O  -12.2%
21. COc1cc(OC)cc(-n2nnnc2SCC(=O)NCc2cccs2)c1  -9.05%
22. O=C1C2N=NN(CC(=O)N3N=C(c4ccccc4)CC3c3ccc([N+](=O)[O-])cc3)C2C(=O)N1c1ccccc1 (stereo not shown)  -8.49%
23. CC(C)(C)n1nnnc1CN1CCN(C(c2ccccc2)c2ccccc2)CC1  -8.48%
24. CC(C)c1ccc(S(=O)(=O)N2CCN(C(=O)c3cc(-c4ccccc4)n[nH]3)CC2)cc1  -8.43%
25. CC(C)C[C@H](CO)Nc1nc(N(C)c2cccc(Cl)c2)c2ncn(C(C)C)c2n1  -7.87%
26. CCOC(=O)c1cc(C(=O)OCC)c2cccc(C)n2c1=O  -7.73%
27. CC(NC(=O)c1ccco1)C(=O)N1CCN(c2cccc(Cl)c2)CC1 (stereo not shown)  -7.49%
28. COc1ccc(N(CC(=O)Nc2cc(Cl)ccc2OC)C2=NC3CS(=O)(=O)CC3S2)cc1 (stereo not shown)  -7.35%
29. CCCN1CCN(C(=O)c2ccc(CS(=O)c3ccc(Cl)cc3)o2)CC1 (stereo not shown)  -5.99%
30. CC(C)(C)c1ccc(C(=O)O)c(C(=O)c2ccccc2)c1  -5.46%
31. COc1cc2ccc(=O)oc2cc1OCC(O)C(C)(C)O (stereo not shown)  -3.54%
32. CCN1CCN(Cc2cc(=O)oc3ccc(C)cc23)CC1  -3.04%
33. O=C(c1ccccc1)c1ccc2ccccc2n1  -1.71%
34. Cn1cnc([N+](=O)[O-])c1Sc1ncccc1N  -1.61%
35. COC(=O)C1=C(C(=O)OC)[C@@H]2N(C)c3ccccc3[C@@]23C[C@@H](C(=O)OC)N(C(=O)c2ccc(Br)cc2)C3=N1  -1.06%
36. COc1cccc(OCc2nnc(SCC(=O)NCc3ccco3)n2C)c1  -0.586%
37. COc1cc(NC(=O)Nc2ccc(C)cc2)cc([N+](=O)[O-])c1  1.05%
38. COc1ccc(NC2(c3ccccc3)OC(=O)c3ccccc32)cc1 (stereo not shown)  1.2%
39. O=C(NCC(=O)N1CCN(c2ccccc2O)CC1)c1ccc2c(c1)OCO2  1.48%
40. Cc1ccc(NC(=O)NC2CC(=O)N(c3ccc4c(c3)OCCO4)C2)c(C)c1 (stereo not shown)  1.86%
41. Cc1ccccc1-c1nc(CS(=O)(=O)CC(=O)N2CCN(C)CC2)c(C)o1  2.73%
42. O=C(O)COCC(=O)NCc1csc2ccccc12  2.75%
43. CC1CC(=O)NN1C(=O)c1ccccc1 (stereo not shown)  3.33%
44. COc1ccc(C2(c3ccc(OC)cc3)NC(=O)N(CC(=O)Nc3cc(C)ccc3OC)C2=O)cc1  3.34%
45. COCCNC(=O)c1onc(CSc2ccccc2C)c1C(=O)O  5.24%
46. O=S(=O)(Nc1cc(Sc2cccc3cccnc23)c(O)c2ccccc12)c1ccc(F)cc1  5.3%
47. O=C(NCCN1CCCCC1)c1ccc2c(c1)OCCO2  5.6%
48. O=C(Nc1cc(Sc2nc3ccccc3s2)cc([N+](=O)[O-])c1)c1ccccc1F  7.08%
49. CS(=O)(=O)NCc1ccc(C(=O)NC2CCCCC2)cc1  7.73%
50. Oc1nc(Nc2ccc(F)cc2)sc1/C=C1\C=Nc2ccccc21  7.84%
51. COc1ccc(Cl)cc1NC(=O)CNc1ccc(F)cc1C  8.07%
52. COc1cc(/C=N/N2C(=O)C3C4C=CC(CC4)C3C2=O)ccc1O (stereo not shown)  8.42%
53. Cc1ccc(C(=O)Nc2cccc(-c3cn4ccccc4n3)c2)cc1  8.43%
54. Nc1c(-c2ccccc2)c(CSc2nc3ccccc3[nH]2)nn1-c1ccc(C(=O)O)cc1  9.01%
55. Cc1ccc(S(=O)(=O)N(C)CC(=O)Oc2ccc(-c3nnco3)cc2)cc1  9.31%
56. COc1ccccc1C#Cc1ccc2c(=O)c3ccccc3n(C)c2c1  9.32%
57. CCC(=O)N1CCc2cc(S(=O)(=O)CCC(=O)NCc3ccccc3OC)ccc21  9.35%
58. Cc1oc2c(c(C)cc3oc(=O)c(CC(=O)NCC(=O)NCC(=O)NCC(C)O)c(C)c32)c1C (stereo not shown)  9.64%
59. CC(C)CCn1nc(C(=O)Nc2nc3c(s2)CCCC3)c2ccccc2c1=O  9.74%
60. C#CCOCCOCCOCCNc1nc(N2CCOCC2)nc(N2CCN(C(=O)[C@H](Cc3cc4ccccc4[nH]3)n3cc([C@@H](N)C(C)CC)nn3)CC2)n1.Cl (stereo partly shown)  9.81%
61. Cc1c(OCC(=O)NCc2cccnc2)ccc2c3c(c(=O)oc12)CCC3  9.98%
62. O=C(O)c1cc(-c2ccccc2)n(-c2ccccc2C(=O)O)n1  10.9%
63. CC1CCCC(NC(=O)c2ccc(CNc3c(N4CCCC4)c(=O)c3=O)cc2)C1C (stereo not shown)  12.3%
64. CN(CC(=O)Nc1ccccc1Cl)C(=O)COC(=O)/C=C/c1cccc(C(F)(F)F)c1  12.7%
65. CN1C(=O)c2ccccc2N(C)C1c1cccc(O)c1 (stereo not shown)  12.9%
66. O=C(O)CC/C(=N\NC(=O)CNC(=O)c1cccc(Cl)c1)c1ccccc1  13.1%
67. CC(C)Nc1nc(NC(C)C)nc(Oc2ccc(=O)n(C)n2)n1  13.3%
68. Cc1ccccc1NC(=O)CSc1[nH]c(=O)cc(C)c1C#N  14.3%
69. COc1ccc(OC)c([N+](=O)[O-])c1C(N)=O  14.4%
70. COc1ccc(CP(=O)(c2ccccc2)c2ccccc2)cc1  14.5%
71. O=C(O)c1ccc(COc2ccc(Cl)cc2)o1  15%
72. COc1ccc(C(=O)NC(=S)Nc2ccc(Cc3ccncc3)cc2)cc1  15%
73. O=C(O)c1ccc(N2C(=O)CCCC2=O)cc1  15.5%
74. CCOC(=O)c1ccc(C(=O)NNC(=O)C2C3C=CC(C3)C2C(=O)O)cc1 (stereo not shown)  16%
75. O=C1C2=C(CCCC2)C(=O)N1CNc1ccccc1  16.3%
76. O=S(=O)(Nc1cccc(-c2ccc(N3CCCCCC3)nn2)c1)c1cccc(F)c1  16.3%
77. COc1ccc(OC)c(/C=N/NC(=O)c2cc(-c3ccc(C)o3)nc3ccccc23)c1  16.7%
78. COc1cc(/C=C2\CCn3c2nc2cc(C(=O)O)ccc2c3=O)ccc1OC(F)F  20.1%
79. O=C(COc1ccc(Cl)cc1Cl)NCC(=O)N/N=C/c1c[nH]c2ccccc12  20.7%
80. CN1C(=O)CCC(CCC(=O)O)(c2ccccc2O)C1=O (stereo not shown)  20.8%
81. CC12CCC(C(=O)N(NC(=O)c3ccc(O)cc3)C1=O)C2(C)C (stereo not shown)  20.9%
82. O=C(COC(=O)c1ccc(Br)cc1)NC1CCCC1  21.7%
83. O=C(c1ccc(Cn2c(=S)[nH]c3ccc(N4CCOCC4)cc3c2=O)cc1)N1CCC(N2CCCCC2)CC1  24.1%
84. O=C(CN1C(=O)C2C3CCC(C3)C2C1=O)NCc1ccco1 (stereo not shown)  24.2%
85. O=C(NCCOc1nc(N2CCCCC2)nc(N2CCCCC2)n1)Nc1ccccc1  25.5%
